# In all, about 33,000 sequences were measured (“E-score (-0.5 to 0.5)”: median about -0.021, highest 2% from about 0.32 on). The list shows a part of the results.
# Target: T1, Zap1 (UniProt P47043)
# T1 sequence: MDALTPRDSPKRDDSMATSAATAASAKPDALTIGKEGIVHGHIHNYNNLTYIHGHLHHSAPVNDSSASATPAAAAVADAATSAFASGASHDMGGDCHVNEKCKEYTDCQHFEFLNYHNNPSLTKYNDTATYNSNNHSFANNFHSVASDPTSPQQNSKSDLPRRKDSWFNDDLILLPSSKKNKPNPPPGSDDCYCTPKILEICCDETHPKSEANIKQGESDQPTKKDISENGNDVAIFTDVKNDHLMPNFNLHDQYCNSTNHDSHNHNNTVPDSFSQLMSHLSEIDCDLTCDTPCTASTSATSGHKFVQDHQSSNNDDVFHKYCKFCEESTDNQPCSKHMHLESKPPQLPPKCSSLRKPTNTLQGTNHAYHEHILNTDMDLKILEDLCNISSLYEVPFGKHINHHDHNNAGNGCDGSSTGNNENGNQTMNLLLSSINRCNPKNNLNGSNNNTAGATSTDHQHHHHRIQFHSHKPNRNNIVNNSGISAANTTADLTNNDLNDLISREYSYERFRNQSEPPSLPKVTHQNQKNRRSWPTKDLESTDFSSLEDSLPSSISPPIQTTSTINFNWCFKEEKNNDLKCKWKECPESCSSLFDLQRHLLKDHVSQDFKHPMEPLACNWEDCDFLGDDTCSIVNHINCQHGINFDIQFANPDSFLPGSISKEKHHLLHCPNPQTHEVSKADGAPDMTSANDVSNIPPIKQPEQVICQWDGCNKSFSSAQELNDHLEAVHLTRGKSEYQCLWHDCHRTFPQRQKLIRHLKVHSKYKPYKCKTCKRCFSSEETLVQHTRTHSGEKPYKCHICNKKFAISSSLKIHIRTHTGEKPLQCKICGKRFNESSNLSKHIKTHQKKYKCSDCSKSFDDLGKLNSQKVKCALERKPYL
# Assay: PBM E-score (8-mer binding enrichment) (E-score (-0.5 to 0.5)); higher = stronger / more preferred TF binding; most listed sequences are background and not binding sites
# Conditions: protein concentration: 200 nM; construct: GST-full length
# Experimental: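 Universal 'all 10-mer' protein binding microarrays (Agilent AMADID 015681) probed with GST-tagged S. cerevisiae TFs (full-length or DBD) made by in vitro transcription/translation (PURExpress), about 100-200 nM. Bound TF was detected with fluorescent anti-GST. Each ungapped 8-mer (which stands for itself and its reverse complement) is scored by the PBM enrichment score (E-score), a modified Wilcoxon-Mann-Whitney statistic from -0.5 to +0.5, computed with the Universal PBM Analysis Suite. Scale: above 0.35 generally sequence-specific binding.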
row,Sequence,PBM E-score
1,GTGATTGA,0.198
2,AGGCATGC,-0.114
3,CGCGAGAC,0.0382
4,CCCATGTA,-0.00257
5,AAGGAAGA,-0.243
6,ACCTGCTG,0.0923
7,AAACCCGA,0.264
8,TCCATGGA,0.223
9,GAGATAGA,-0.203
10,GGCCTCTA,0.0229
11,TAGTGTAA,0.0751
12,ATCAAGTG,0.0889
13,TATGCCCA,-0.0534
14,AAATGCAC,-0.0899
15,CCATATTA,0.159
16,GTCGGGAA,-0.157
17,CCCCCGTA,-0.263
18,CGGGCAAG,-0.146
19,CTACTGAA,-0.0809
20,TACTTCAA,0.0283
21,CCTACCTC,0.125
22,CTATATTA,0.161
23,CCCATAGC,-0.23
24,ATGACCCA,0.397
25,CCAAATTC,0.14

row,Sequence,PBM E-score
1,AGGGGACA,0.0162
2,CCCTGGAG,0.0729
3,ATTGTAGG,0.234
4,ATACGTAC,-0.00929
5,AAGAAGTG,-0.138
6,ATTACAGA,0.158
7,CGTTCATC,0.00105
8,CAAGGTAC,0.357
9,CATGTCTC,-0.158
10,CGATAAGA,-0.0114
11,CAACGTAA,0.00769
12,ATAATTGC,-0.0517
13,CGTCTGAG,-0.149
14,GGTGGCAA,-0.113
15,AGAGTTGG,-0.232
16,CTAAACCA,0.104
17,ATATCATC,-0.031
18,ACGGATTA,-0.195
19,AATGTGAA,0.113
20,TCGTACCA,0.149
21,ACTGCGCT,-0.191
22,CCAGTCTC,-0.22
23,CCACCACG,0.123
24,GCCAAGCC,-0.181
25,AACCTCAC,0.244

row,Sequence,PBM E-score
1,CCTAGAAG,0.0494
2,CTGAATTC,-0.0926
3,ACTCTGGA,0.152
4,AGGCTTCA,-0.377
5,ATGTTCCA,0.028
6,ACTGGAGG,0.0644
7,GCCGCGCC,-0.0853
8,GCTACCAA,0.136
9,AGATAGTG,0.0442
10,GCGTTGCA,-0.0961
11,AAAGCCTG,-0.193
12,TAGGCCTA,0.117
13,GCCTCGAA,0.101
14,ATAGGGAC,-0.0311
15,GTTCGCTA,-0.06
16,ATTCATGC,-0.163
17,AGCAACGA,0.0254
18,ACCCTGAA,0.399
19,GATACGCA,0.0615
20,GAGCAGGA,0.00517
21,GGGGCACA,-0.0626
22,GGCAAGAA,-0.0674
23,ACACAGTG,-0.157
24,TAAGAACA,0.224
25,GTTCTTTA,0.135

row,Sequence,PBM E-score
1,GATCAACC,-0.0383
2,ATTGAGGA,-0.00619
3,AAGGGTGG,0.19
4,ATATATAG,0.114
5,AGCCACCA,-0.135
6,ACGTATGC,-0.163
7,TCTAATAA,0.158
8,AATGATGA,0.0609
9,CTGGGATA,-0.0065
10,AGAATTTA,-0.129
11,TCGTTTAA,0.108
12,TCGCGACA,0.0398
13,CCAGGGGA,-0.0512
14,CTTACCGA,0.00642
15,AAGCATGA,-0.0767
16,TCGCAAAA,-0.159
17,GGCGATAC,-0.237
18,TCGCTCAA,0.126
19,ACGCGCCA,-0.135
20,AGTCAAGC,-0.199
21,CGATGGTA,0.157
22,CAAAGGAC,-0.139
23,ATTTTTAA,0.227
24,GCAACACC,0.00095
25,CCACCCAA,-0.0177

row,Sequence,PBM E-score
1,AATAACGG,0.169
2,GACGATGC,-0.171
3,TCGCGAGA,0.117
4,AGCTACGG,-0.14
5,ATAAGGAG,-0.0355
6,CTCCTGTC,0.00203
7,GCCGTTAC,0.068
8,CTCCATCA,-0.222
9,GGTGGCAC,0.00539
10,AATGGGCA,-0.104
11,CGAAACCG,0.0622
12,GCCACAGA,-0.281
13,CAACTATC,0.0235
14,AAAAATGA,0.00224
15,CTGTGCAC,-0.0626
16,CAACAAGG,0.248
17,CCGTCCAC,-0.114
18,AGGTTATC,0.463
19,TCCTGAAA,0.0825
20,AATGAAAA,0.0893
21,ACTGTCGG,-0.252
22,AATGGTGG,-0.078
23,AGACTGTA,-0.103
24,ATCACGTC,-0.252
25,GTGGCGCA,-0.0557

row,Sequence,PBM E-score
1,CTACGATA,0.11
2,GCGTCGGA,-0.0408
3,CCTATTCC,-0.0321
4,ATAAAAGA,-0.00372
5,GCTCTAAA,-0.028
6,AGATCGGG,-0.202
7,ACAAAGCC,0.072
8,AGGTTCGA,-0.0741
9,AATGATTG,-0.0873
10,ATGTCAAC,-0.114
11,AGGATCCG,-0.224
12,TAAACACA,0.0468
13,GGGTGACA,0.252
14,TCCAGCAA,-0.106
15,AGTCGGAA,-0.0728
16,AGCAGAAT,0.0481
17,CGGTTTAG,0.0251
18,ATGAATAA,0.0541
19,AGGGAACT,0.0955
20,GCTATGGA,-0.0408
21,GACGGACC,0.139
22,CGCGCATC,-0.114
23,CAAGGGCG,-0.136
24,ATCTGGGA,-0.121
25,CTCCTTCC,-0.249

row,Sequence,PBM E-score
1,ACGCAGAT,-0.128
2,CAAGATTC,-0.0578
3,ATATATGC,-0.01
4,GAATCAGA,0.0557
5,AGATAGAC,-0.098
6,CTGCTTGA,-0.172
7,ACGCTTGG,-0.0987
8,AGCTAACT,-0.0554
9,ACAGTATC,-0.00884
10,GAGGAATA,0.046
11,ATCCCGAG,-0.15
12,ATTAGGCC,-0.013
13,CATGTTAA,0.139
14,GCCGCGAC,0.0853
15,AATCATCG,-0.132
16,GGGCGACA,-0.209
17,TAGAATGA,0.0391
18,ACCAGTCC,-0.232
19,ACTTTTTG,0.248
20,GTACTACA,0.24
21,AGCTACTA,0.00657
22,GACTTATC,-0.211

# From the supplement of paper PMC3334620
